Assay results as given in the supplement of paper PMC3334620.
In all, about 33,000 sequences were measured (“E-score (-0.5 to 0.5)”: median about -0.016, highest 2% from about 0.32 on). This is one part of the list.

The sequences below were run against T1, Stp1 (UniProt B3LFK1) (assay: PBM E-score (8-mer binding enrichment) (E-score (-0.5 to 0.5)); higher = stronger / more preferred TF binding; most listed sequences are background and not binding sites). Conditions: protein concentration: 200 nM; construct: GST-full length.
T1 sequence: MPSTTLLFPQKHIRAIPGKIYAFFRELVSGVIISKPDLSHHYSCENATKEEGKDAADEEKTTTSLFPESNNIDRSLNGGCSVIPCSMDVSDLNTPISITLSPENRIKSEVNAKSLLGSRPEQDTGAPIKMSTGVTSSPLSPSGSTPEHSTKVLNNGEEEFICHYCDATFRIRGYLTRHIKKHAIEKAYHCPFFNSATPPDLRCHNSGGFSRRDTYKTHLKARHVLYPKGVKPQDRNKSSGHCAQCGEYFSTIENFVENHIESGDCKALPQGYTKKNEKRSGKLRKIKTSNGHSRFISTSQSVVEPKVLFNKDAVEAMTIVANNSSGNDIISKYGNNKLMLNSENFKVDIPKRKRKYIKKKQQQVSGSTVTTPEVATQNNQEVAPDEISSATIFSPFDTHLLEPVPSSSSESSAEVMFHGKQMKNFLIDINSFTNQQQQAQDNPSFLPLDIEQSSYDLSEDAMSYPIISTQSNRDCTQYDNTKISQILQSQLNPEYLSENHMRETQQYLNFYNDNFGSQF
Summary of the method: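 Each ungapped eight-base word and its reverse complement, pooled, received an E-score from the Universal PBM Analysis Suite. Underlying scans, normalised with masliner, recorded fluorescent anti-GST bound to GST-tagged yeast transcription factors. These were applied at about 100-200 nM to universal all-10-mer Agilent arrays double-stranded by primer extension.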

Going from GGCCAGCA to GGCAGGCC, the “PBM E-score” value rises from -0.139 to -0.117.

Compared with CCCCCCGC, GCTGTGCA is higher in “PBM E-score” value: -0.288 for the first, -0.129 for the second.

Compared with ACGCGAGC, ATGAGAAG is lower in “PBM E-score” value: 0.00376 for the first, -0.203 for the second.

Going from AGGCGCCT to TCGAGTAA, the “PBM E-score” value falls from 0.383 to 0.0232.

Compared with AGCTGTTG, TTGGAAAA is higher in “PBM E-score” value: 0.0858 for the first, 0.177 for the second.

Compared with AGGCAATA, CTTGGGTC is lower in “PBM E-score” value: 0.227 for the first, -0.136 for the second.

Compared with ACGGGGAT, AACGAATA is lower in “PBM E-score” value: -0.0326 for the first, -0.119 for the second.

First: CACCCTCG
Second: GCAGTAGC
The “PBM E-score” value of the first is higher: -0.0726 for the first, -0.267 for the second.

First: CAAACTGG
Second: GAGGTCCA
The “PBM E-score” value of the first is lower: -0.136 for the first, -0.116 for the second.

First: CAGCCATA
Second: GTGTCTCA
The “PBM E-score” value of the first is lower: -0.0858 for the first, -0.0138 for the second.

First: CACAGAAC
Second: CTAGGGAC
The “PBM E-score” value of the first is lower: -0.213 for the first, -0.0838 for the second.

Compared with CGAGGCCG, AAGTCTGA is lower in “PBM E-score” value: 0.106 for the first, -0.299 for the second.

Going from GACATCTA to CCACATGG, the “PBM E-score” value rises from -0.0238 to 0.0401.

Going from CACGTGTA to CTTGTCAA, the “PBM E-score” value rises from 0.0091 to 0.225.

First: AATAATAT
Second: AGCCATTC
The “PBM E-score” value of the first is higher: 0.275 for the first, -0.0844 for the second.

Compared with AGGAGAAG, AGTACGAC is higher in “PBM E-score” value: -0.19 for the first, 0.0357 for the second.

Compared with AACGCAAG, CAACACGA is higher in “PBM E-score” value: -0.143 for the first, 0.0474 for the second.

Going from CGAATAAG to CAAGTCCA, the “PBM E-score” value falls from -0.0318 to -0.219.

Going from CGGCCCGA to CAACCCCC, the “PBM E-score” value falls from -0.0193 to -0.185.

First: TCGACCGA
Second: ACCACGCC
The “PBM E-score” value of the first is lower: -0.0119 for the first, 0.0954 for the second.

First: GCCTACGA
Second: GTATCGTA
The “PBM E-score” value of the first is higher: 0.178 for the first, 0.141 for the second.

First: TAAGTCAA
Second: GACAATCC
The “PBM E-score” value of the first is higher: -0.0101 for the first, -0.0902 for the second.

First: CTTATAGA
Second: ACCATTGA
The “PBM E-score” value of the first is higher: 0.0839 for the first, -0.00978 for the second.

Compared with AAGCAAGA, CACATTCA is higher in “PBM E-score” value: -0.0272 for the first, -0.0223 for the second.

Going from AGATCTCG to CCAAAAAC, the “PBM E-score” value rises from -0.175 to 0.103.

Going from AATCAGTC to ACTATCAG, the “PBM E-score” value falls from -0.0135 to -0.0716.

Going from CAGACCGC to AGTACTGA, the “PBM E-score” value falls from 0.0528 to -0.0258.

First: ATGCTAGC
Second: ATGGTTTC
The “PBM E-score” value of the first is lower: 0.0222 for the first, 0.0834 for the second.

Compared with CAATTGGA, ACCGGGCG is lower in “PBM E-score” value: -0.021 for the first, -0.181 for the second.

Going from CTAATGGC to ATTCACTG, the “PBM E-score” value falls from 0.00836 to -0.00846.

Going from AGCGTGCA to ATAGGCCA, the “PBM E-score” value falls from 0.0143 to -0.149.

Compared with CACTCGCA, AAAACTCT is higher in “PBM E-score” value: -0.154 for the first, -0.0562 for the second.

Compared with CGGTGGGA, CCCACAAC is higher in “PBM E-score” value: -0.204 for the first, -0.0446 for the second.

First: CCCTGTAG
Second: AGACGTCC
The “PBM E-score” value of the first is lower: -0.231 for the first, -0.107 for the second.

Going from ATCTGAAA to CACCGGGG, the “PBM E-score” value falls from 0.134 to -0.345.

Compared with GATACTGC, GGTGGATA is lower in “PBM E-score” value: 0.146 for the first, -0.0903 for the second.

First: CACTCAAC
Second: TAGATAAA
The “PBM E-score” value of the first is lower: 0.0238 for the first, 0.128 for the second.

Going from ACGAAACG to AAACCACA, the “PBM E-score” value falls from 0.238 to 0.109.

Compared with AGAGCTTC, AGGTCCTG is lower in “PBM E-score” value: -0.215 for the first, -0.294 for the second.

First: CGCTCGAA
Second: GACAAGTA
The “PBM E-score” value of the first is lower: -0.176 for the first, -0.0307 for the second.

Going from ACAAACCG to CCAATTGG, the “PBM E-score” value falls from -0.0683 to -0.0737.

First: CCGTTTTA
Second: ACATAGTG
The “PBM E-score” value of the first is higher: 0.13 for the first, -0.00204 for the second.

First: GACTAACC
Second: GCTGCTTA
The “PBM E-score” value of the first is lower: -0.18 for the first, -0.0456 for the second.

Compared with AGCTTCGG, ATGATTGC is higher in “PBM E-score” value: -0.155 for the first, 0.0859 for the second.

Going from TGATGGCA to CACTATCG, the “PBM E-score” value rises from -0.165 to 0.124.

Compared with CGATACTA, CCTCGAGG is lower in “PBM E-score” value: 0.156 for the first, -0.161 for the second.

Going from CTTCCGGC to AGAAGATA, the “PBM E-score” value rises from 0.126 to 0.129.

First: CGTTTATA
Second: CCATTAAA
The “PBM E-score” value of the first is higher: 0.331 for the first, 0.0525 for the second.

Going from CTCCGCAA to CACTGGCC, the “PBM E-score” value falls from -0.117 to -0.225.

Going from AGGCACAC to ACGCAGCA, the “PBM E-score” value falls from 0.0169 to -0.0873.

Compared with GATAAGCA, CATCTGAG is higher in “PBM E-score” value: 0.0561 for the first, 0.177 for the second.

Compared with AGGGGTGC, GTGAGAGA is higher in “PBM E-score” value: -0.0447 for the first, 0.0511 for the second.

First: ACGTGACC
Second: ACTCTCGG
The “PBM E-score” value of the first is lower: -0.161 for the first, -0.0544 for the second.

Compared with TCCGAAAA, CTATGATC is higher in “PBM E-score” value: -0.159 for the first, 0.0732 for the second.

Going from ACCCTGAG to ATAACTAG, the “PBM E-score” value rises from -0.216 to 0.0832.

First: GACGCACA
Second: ACCGGCTC
The “PBM E-score” value of the first is higher: -0.0542 for the first, -0.0667 for the second.

Compared with ACACCTCA, CCAGGTTA is lower in “PBM E-score” value: -0.159 for the first, -0.165 for the second.

First: GTTCAAAA
Second: GAATCGGC
The “PBM E-score” value of the first is lower: 0.185 for the first, 0.268 for the second.

Compared with CACCCATA, GATGGACA is lower in “PBM E-score” value: -0.029 for the first, -0.151 for the second.

Going from CAAAGACC to AGGCTGGA, the “PBM E-score” value falls from -0.0037 to -0.262.

Going from CATCCGCC to ACACGATC, the “PBM E-score” value rises from -0.0808 to 0.00182.

Going from ACTAATCT to ATGACCTA, the “PBM E-score” value falls from -0.0199 to -0.0891.

First: CGCGCCCC
Second: CCGTCATC
The “PBM E-score” value of the first is higher: 0.209 for the first, -0.0428 for the second.

First: ATGATTCA
Second: AAGTTCGT
The “PBM E-score” value of the first is lower: -0.0956 for the first, 5e-05 for the second.

First: GAGCTGCA
Second: AGATTAGA
The “PBM E-score” value of the first is lower: -0.143 for the first, 0.0144 for the second.

Going from GAATACCC to ACAAGTAA, the “PBM E-score” value rises from -0.105 to -0.0143.

Compared with CGCCAGAC, CAGACTCC is lower in “PBM E-score” value: 0.0361 for the first, -0.148 for the second.

Compared with CTTTATAC, GCCTCCAA is lower in “PBM E-score” value: 0.0213 for the first, -0.0782 for the second.

Going from AGACGAGC to CCATGACG, the “PBM E-score” value falls from 0.0654 to 0.0214.

Going from GCCGGAGA to CTGCGCTA, the “PBM E-score” value falls from 0.0478 to -0.221.

Compared with GCCGACTA, CTGGTCTA is lower in “PBM E-score” value: 0.132 for the first, -0.11 for the second.

First: AGTAGAAT
Second: ACCGCTTG
The “PBM E-score” value of the first is higher: 0.196 for the first, 0.00664 for the second.

First: CAACGGGA
Second: AGATTTCC
The “PBM E-score” value of the first is higher: 0.0536 for the first, -0.00021 for the second.

First: AAGGCAAA
Second: ACGTTCTA
The “PBM E-score” value of the first is higher: 0.247 for the first, -0.0268 for the second.

Compared with CGACATCC, AACAGGAG is lower in “PBM E-score” value: -0.0307 for the first, -0.283 for the second.

First: CGCGTGAC
Second: GTGGTACA
The “PBM E-score” value of the first is higher: 0.0453 for the first, -0.069 for the second.

Going from CCGCATCG to TACGAGAA, the “PBM E-score” value falls from 0.175 to 0.0776.

Compared with TCGCGAAA, GCTTTTAA is lower in “PBM E-score” value: 0.0549 for the first, -0.0796 for the second.

Going from TGAAATAA to CTAAAATC, the “PBM E-score” value falls from 0.0772 to -0.102.

Compared with AAAATAAT, CGGTATGC is lower in “PBM E-score” value: 0.248 for the first, -0.0255 for the second.

Going from CAGTATGA to ACGGCATG, the “PBM E-score” value rises from 0.111 to 0.422.

First: CACCACGA
Second: AGACACAG
The “PBM E-score” value of the first is higher: -0.0238 for the first, -0.286 for the second.

Compared with CTGGTTGA, GGAAGCTA is higher in “PBM E-score” value: -0.233 for the first, -0.174 for the second.

Compared with AGTAGCGA, AGTCCGGA is higher in “PBM E-score” value: -0.0798 for the first, 0.00876 for the second.

Compared with CCAATAAA, GACCTGTA is lower in “PBM E-score” value: 0.25 for the first, -0.216 for the second.

Compared with ATAAAGGA, GCACAGAC is higher in “PBM E-score” value: -0.201 for the first, 0.142 for the second.
